# Test results: the supplement of paper PMC7726561
# Over roughly 1,400 sequences, “thermal melting temperature (Tm) of peptide-HLA complex” has its median near 60; the lowest 2% begin near 45. This is one part of the list.
# Biological target: HLA-B*07:02
# Test: thermal melting temperature (Tm) of peptide-HLA complex; higher = more thermostable pHLA complex
# Conditions: C1R-B*07:02
# 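Also: cell lysates heated 10 min at 37–73 °C, remaining pHLA pulled down with pan-class I antibody, peptides quantified by DIA-MS versus 37 °C, Tm where half the complex is lost.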
row,Sequence,thermal melting temperature [°C]
1,RPIAPAPPSTL,59.7
2,SPRKLPTSL,58.1
3,VPMPLPTVL,62.6
4,SPANLPAVL,62.6
5,HPRSPNVLSV,57.6
6,FPEALRLAL,62.7
7,SPLKGLSL,57.7
8,LPKSPPYTAF,63.5
9,APSQQRLVVV,61.4
10,MPRQPSATRL,54.7
11,VPNAGRGLV,58.5
12,LPKDQGITL,61.7
13,RPQPQTLQL,56.6
14,IFSEVPVQL,42.1
15,KPKFILSVL,62.7
16,APRELGLGLGL,62.5
